# Assay results from the supplement of paper PMC8728848.
# The list shows a part of the results.
# Key:
# Assay in all cases: glycan array binding signal (z-score within array); higher = stronger binding
# Conditions in all cases: glycan notation: IUPAC condensed, linker removed
# [1] = target: Gal(b1-4)GlcNAc(b1-6)Gal(b1-4)GlcNAc
# Method in brief: (§1)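 The binding signal is a Z-score computed within each array. Data were drawn from 3228 arrays in the Consortium for Functional Glycomics database, restricted to those with a known protein sequence. Scores were averaged over arrays of the same protein sequence at different concentrations or buffers, and over linkers, and negative values can be taken as non-binding.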
# [2] = target: Gal(b1-4)GlcNAc(b1-6)Gal(b1-4)GlcNAc(b1-6)GalNAc
# Method in brief: as §1
# [3] = target: Gal(b1-4)GlcNAc(b1-6)GalNAc
# Method in brief: as §1
# [4] = target: Gal(b1-4)GlcNAc(b1-6)[Gal(b1-3)]GalNAc
# Method in brief: as §1
# [5] = target: Gal3S(b1-3)GalNAc
# Method in brief: as §1
# [6] = target: Gal3S(b1-3)GlcNAc
# Method in brief: as §1
# [7] = target: Gal3S(b1-3)[Fuc(a1-4)]GlcNAc
# Method in brief: as §1
# [8] = target: Gal3S(b1-4)Glc
# Method in brief: as §1
# [9] = target: Gal3S(b1-4)Glc6S
# Method in brief: as §1
# [10] = target: Gal3S(b1-4)GlcNAc
# Method in brief: as §1
# [11] = target: Gal3S(b1-4)GlcNAc6S
# Method in brief: as §1
# [12] = target: Gal3S(b1-4)[Fuc(a1-3)]Glc
# Method in brief: as §1
# [13] = target: Gal3S4S(b1-4)GlcNAc
# Method in brief: as §1
# [14] = target: Gal3S6S(b1-4)GlcNAc
# Method in brief: as §1
# [15] = target: Gal3S6S(b1-4)GlcNAc6S
# Method in brief: as §1
# [16] = target: Gal4S(b1-4)GlcNAc
# Method in brief: as §1
# [17] = target: Gal4S6S(b1-4)GlcNAc
# Method in brief: as §1
# [18] = target: Gal6S(b1-4)Glc
# Method in brief: as §1
# [19] = target: Gal6S(b1-4)Glc6S
# Method in brief: as §1
# [20] = target: Gal6S(b1-4)GlcNAc
# Method in brief: as §1
# [21] = target: Gal6S(b1-4)GlcNAc6S
# Method in brief: as §1
# [22] = target: GalNAc(a1-3)Gal
# Method in brief: as §1
# [23] = target: GalNAc(a1-3)GalNAc
# Method in brief: as §1
# [24] = target: GalNAc(b1-3)Gal
# Method in brief: as §1
# [25] = target: GalNAc(b1-3)Gal(a1-4)Gal(b1-4)GlcNAc
# Method in brief: as §1
# [26] = target: GalNAc(b1-3)Gal(a1-4)Gal(b1-4)GlcNAc(b1-3)Gal(b1-4)Glc
# Method in brief: as §1
# [27] = target: GalNAc(b1-3)GalNAc
# Method in brief: as §1
# [28] = target: GalNAc(b1-4)GlcNAc
# Method in brief: as §1
# [29] = target: GalNAc(b1-4)GlcNAc(b1-2)Man(a1-3)[GalNAc(b1-4)GlcNAc(b1-2)Man(a1-6)]Man(b1-4)GlcNAc(b1-4)GlcNAc
# Method in brief: as §1
# [30] = target: Glc(a1-4)Glc
# Method in brief: as §1
binder,measurement,setting,value
"Neuropilin-2 (Homo sapiens), O60462 (protein) MDMFPLTWVFLALYFSRHQVRGQPDPPCGGRLNSKDAGYITSPGYPQDYPSHQNCEWIVYAPEPNQKIVLNFNPHFEIEKHDCKYDFIEIRDGDSESADLLGKHCGNIAPPTIISSGSMLYIKFTSDYARQGAGFSLRYEIFKTGSEDCSKNFTSPNGTIESPGFPEKYPHNLDCTFTILAKPKMEIILQFLIFDLEHDPLQVGEGDCKYDWLDIWDGIPHVGPLIGKYCGTKTPSELRSSTGILSLTFHTDMAVAKDGFSARYYLVHQEPLENFQCNVPLGMESGRIANEQISASSTYSDGRWTPQQSRLHGDDNGWTPNLDSNKEYLQVDLRFLTMLTAIATQGAISRETQNGYYVKSYKLEVSTNGEDWMVYRHGKNHKVFQANNDATEVVLNKLHAPLLTRFVRIRPQTWHSGIALRLELFGCRVTDAPCSNMLGMLSGLIADSQISASSTQEYLWSPSAARLVSSRSGWFPRIPQAQPGEEWLQVDLGTPKTVKGVIIQGARGGDSITAVEARAFVRKFKVSYSLNGKDWEYIQDPRTQQPKLFEGNMHYDTPDIRRFDPIPAQYVRVYPERWSPAGIGMRLEVLGCDWTDSKPTVETLGPTVKSEETTTPYPTEEEATECGENCSFEDDKDLQLPSGFNCNFDFLEEPCGWMYDHAKWLRTTWASSSSPNDRTFPDDRNFLRLQSDSQREGQYARLISPPVHLPRSPVCMEFQYQATGGRGVALQVVREASQESKLLWVIREDQGGEWKHGRIILPSYDMEYQIVFEGVIGKGRSGEIAIDDIRISTDVPLENCMEPISAFAGENFKVDIPEIHEREGYEDEIDDEYEVDWSNSSSATSGSGAPSTDKEKSWLYTLDPILITIIAMSSLGVLLGATCAGLLLYCTCSYSGLSSRSCTTLENYNFELYDGLKHKVKMNHQKCCSEA",glycan array binding signal (z-score),[1],-0.761
same,glycan array binding signal (z-score),[2],0.154
same,glycan array binding signal (z-score),[3],-0.223
same,glycan array binding signal (z-score),[4],0.109
same,glycan array binding signal (z-score),[5],-0.396
same,glycan array binding signal (z-score),[6],-0.022
same,glycan array binding signal (z-score),[7],-0.633
same,glycan array binding signal (z-score),[8],-0.532
same,glycan array binding signal (z-score),[9],0.419
same,glycan array binding signal (z-score),[10],0.165
same,glycan array binding signal (z-score),[11],0.03
same,glycan array binding signal (z-score),[12],0.996
same,glycan array binding signal (z-score),[13],-0.032
same,glycan array binding signal (z-score),[14],0.401
same,glycan array binding signal (z-score),[15],0.497
same,glycan array binding signal (z-score),[16],-0.216
same,glycan array binding signal (z-score),[17],1.92
same,glycan array binding signal (z-score),[18],-0.043
same,glycan array binding signal (z-score),[19],0.689
same,glycan array binding signal (z-score),[20],0.357
same,glycan array binding signal (z-score),[21],1.67
same,glycan array binding signal (z-score),[22],0.45
same,glycan array binding signal (z-score),[23],-0.367
same,glycan array binding signal (z-score),[24],-0.285
same,glycan array binding signal (z-score),[25],-0.499
same,glycan array binding signal (z-score),[26],-0.06
same,glycan array binding signal (z-score),[27],-0.901
same,glycan array binding signal (z-score),[28],-0.284
same,glycan array binding signal (z-score),[29],-0.277
same,glycan array binding signal (z-score),[30],-0.194
